In all, about 33,000 sequences were measured (“E-score (-0.5 to 0.5)”: median about -0.017, highest 2% from about 0.3 on). The list shows a part of the results.
Each sequence was assayed against T1, Sut1 (UniProt P53032) (assay: PBM E-score (8-mer binding enrichment) (E-score (-0.5 to 0.5)); higher = stronger / more preferred TF binding; most listed sequences are background and not binding sites). Details: protein concentration: 200 nM; construct: GST-full length.
T1 sequence: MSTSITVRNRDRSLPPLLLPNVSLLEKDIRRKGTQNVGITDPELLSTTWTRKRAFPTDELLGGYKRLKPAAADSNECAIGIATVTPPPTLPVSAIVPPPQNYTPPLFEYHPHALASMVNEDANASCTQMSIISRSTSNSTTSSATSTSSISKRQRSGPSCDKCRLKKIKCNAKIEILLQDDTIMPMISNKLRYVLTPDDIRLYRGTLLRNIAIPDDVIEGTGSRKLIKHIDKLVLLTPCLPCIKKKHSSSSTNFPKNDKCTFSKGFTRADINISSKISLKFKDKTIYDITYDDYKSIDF
Outline: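 For each ungapped eight-base word taken together with its reverse complement, the Universal PBM Analysis Suite assigned an E-score. Binding data came from GST-tagged yeast transcription factors, applied at about 100-200 nM, on universal all-10-mer Agilent arrays made double-stranded by primer extension. Fluorescent anti-GST marked bound protein, and scans were normalised with masliner.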
For CAGCAGCG, the “PBM E-score” value was -0.221. CCTGCGAC was tested, and the “PBM E-score” value was -0.301. In the case of CCACACCG, the “PBM E-score” value is reported as -0.162. With CCATGTGC the “PBM E-score” value was -0.015. AATGCAGT was tested, and the “PBM E-score” value was -0.103. ACTGGATG was tested, and the “PBM E-score” value was -0.251. With AGCCAGGG the “PBM E-score” value was -0.376. GACCCCAA was tested, and the “PBM E-score” value was -0.241. In the case of AGTTTAAA, the “PBM E-score” value is reported as 0.335. ATGAGGGA was tested, and the “PBM E-score” value was -0.166. For AGATGTTG, the “PBM E-score” value was -0.108. AGCTAGCA was tested, and the “PBM E-score” value was -0.14. In the case of ACAGTTAT, the “PBM E-score” value is reported as 0.0653. GCAGAAGC was tested, and the “PBM E-score” value was -0.0924. With GACGCTCA the “PBM E-score” value was -0.191. With AGGTCGGG the “PBM E-score” value was -0.149. With GAGAGTAA the “PBM E-score” value was 0.147. ACCACGCT was tested, and the “PBM E-score” value was -0.135. With ATAGGTTG the “PBM E-score” value was -0.0917. In the case of TCACATAA, the “PBM E-score” value is reported as 0.0806. In the case of ACAATGTA, the “PBM E-score” value is reported as 0.0677. For ATCGTTAC, the “PBM E-score” value was 0.0774. For GCCCGAGC, the “PBM E-score” value was 0.0318. ATAAAATC was tested, and the “PBM E-score” value was 0.162. With ACGAGGTG the “PBM E-score” value was -0.21. With AGTCACTA the “PBM E-score” value was 0.0936. With GCAATACA the “PBM E-score” value was 0.196. CAAGATGC was tested, and the “PBM E-score” value was 0.109. In the case of ATATGCTG, the “PBM E-score” value is reported as -0.104. For GCCCGTTA, the “PBM E-score” value was -0.197. With CCCCCATA the “PBM E-score” value was -0.324. In the case of GCTTCGTA, the “PBM E-score” value is reported as 0.0454. In the case of CATCAGGC, the “PBM E-score” value is reported as -0.0777. With ACATCGCA the “PBM E-score” value was -0.067. For CAAGTATC, the “PBM E-score” value was 0.0559. For ACGGGCGC, the “PBM E-score” value was -0.205. With AAGCGCTA the “PBM E-score” value was 0.176. For AATTAACT, the “PBM E-score” value was 0.237. With AAGCGTAT the “PBM E-score” value was -0.119. In the case of CTCTACGC, the “PBM E-score” value is reported as -0.155. For CGCGGGCA, the “PBM E-score” value was 0.0742. For CCTCGCCG, the “PBM E-score” value was -0.338. In the case of CAGCCTAC, the “PBM E-score” value is reported as -0.0545. In the case of CAAACTGC, the “PBM E-score” value is reported as 0.0384. GCCCCTAA was tested, and the “PBM E-score” value was -0.251. In the case of AGCACGTA, the “PBM E-score” value is reported as 0.0175. With CAGTGTGG the “PBM E-score” value was -0.124. In the case of GATACGCC, the “PBM E-score” value is reported as -0.129. For ACGCGTAC, the “PBM E-score” value was -0.00813. In the case of AAAGTCAG, the “PBM E-score” value is reported as 0.00828. In the case of CTTACGAC, the “PBM E-score” value is reported as -0.189. In the case of CGCATTAG, the “PBM E-score” value is reported as -0.174. In the case of CGTGCGAG, the “PBM E-score” value is reported as -0.0295. With AAAACAAG the “PBM E-score” value was 0.0776. With CAGATTAA the “PBM E-score” value was 0.202. AACCGTAA was tested, and the “PBM E-score” value was 0.035. For GTCTGAAA, the “PBM E-score” value was 0.0321. For ACCCGCCA, the “PBM E-score” value was -0.175. In the case of AGACCCAG, the “PBM E-score” value is reported as -0.287. For GTCTACAA, the “PBM E-score” value was -0.00497. For AGCTGCCG, the “PBM E-score” value was 0.0639. For ACCCCAGA, the “PBM E-score” value was -0.235. In the case of GAATAATC, the “PBM E-score” value is reported as 0.118. In the case of CTCGGACC, the “PBM E-score” value is reported as 0.368. In the case of AAGGACGG, the “PBM E-score” value is reported as -0.195. ACAAGCAA was tested, and the “PBM E-score” value was 0.0908. CGATGTAC was tested, and the “PBM E-score” value was -0.0815. For CCGTTCCG, the “PBM E-score” value was 0.134. For CTAAGCGC, the “PBM E-score” value was -0.136. In the case of CAGCCTGC, the “PBM E-score” value is reported as -0.224. For CCTTGCTC, the “PBM E-score” value was -0.173. In the case of CAAAGCGA, the “PBM E-score” value is reported as 0.0222. CATGATAG was tested, and the “PBM E-score” value was 0.0908. With CGAACTTC the “PBM E-score” value was 0.0646. ATGCACAC was tested, and the “PBM E-score” value was -0.0762. AATTCGTG was tested, and the “PBM E-score” value was -0.0661. With ATGGTACG the “PBM E-score” value was 0.0767. In the case of GGTCTCAC, the “PBM E-score” value is reported as -0.108. With AAGGGTGT the “PBM E-score” value was -0.0326. In the case of AGATTAAT, the “PBM E-score” value is reported as 0.222. CCCACGGA was tested, and the “PBM E-score” value was 0.152. With CTTTGTTC the “PBM E-score” value was 0.0286. For AATACGGA, the “PBM E-score” value was 0.286. With GGCGCCTA the “PBM E-score” value was -0.227. In the case of TAGAGCTA, the “PBM E-score” value is reported as -0.227. With AACGAGAG the “PBM E-score” value was 0.0646. In the case of ACCGGCCT, the “PBM E-score” value is reported as -0.185. For AACCTTGA, the “PBM E-score” value was 0.116. In the case of CGCCGGAA, the “PBM E-score” value is reported as 0.132. With GACACCAA the “PBM E-score” value was -0.0326. In the case of CTGTCCCC, the “PBM E-score” value is reported as -0.214. In the case of CGCCCTAA, the “PBM E-score” value is reported as -0.166. ATAATCTA was tested, and the “PBM E-score” value was 0.262. For GGCGTCCC, the “PBM E-score” value was -0.27. In the case of ATAAGACC, the “PBM E-score” value is reported as 0.151. CAGCCAGC was tested, and the “PBM E-score” value was -0.131. For GTCTTAAA, the “PBM E-score” value was 0.00721. For CACGAAAG, the “PBM E-score” value was -0.0298. AGTGAACC was tested, and the “PBM E-score” value was -0.0366. In the case of ACCGCGCC, the “PBM E-score” value is reported as -0.133. For CATACGTC, the “PBM E-score” value was -0.0138. With CTTTAATC the “PBM E-score” value was 0.183. With CAAGGGAA the “PBM E-score” value was -0.215. With GACTGTCA the “PBM E-score” value was 0.00156. With TATAGCAA the “PBM E-score” value was 0.186. With CAGAAGTC the “PBM E-score” value was -0.188. In the case of AAATCTAT, the “PBM E-score” value is reported as 0.219. For GCCCATAC, the “PBM E-score” value was -0.182. With TGGCGGAA the “PBM E-score” value was -0.0601. TCCCCCAA was tested, and the “PBM E-score” value was -0.237. CTGTGATC was tested, and the “PBM E-score” value was 0.101. GGATTTAA was tested, and the “PBM E-score” value was 0.224. ACCGGAAA was tested, and the “PBM E-score” value was 0.268. For CAGAGCAA, the “PBM E-score” value was 0.0158. For CCGGAACC, the “PBM E-score” value was 0.185. For CTGGTGCA, the “PBM E-score” value was -0.255. CATGACTC was tested, and the “PBM E-score” value was 0.0183. ATCCCCGC was tested, and the “PBM E-score” value was -0.0529. In the case of AAGCCAGG, the “PBM E-score” value is reported as -0.253. GATTATAC was tested, and the “PBM E-score” value was 0.0252. With ATAGGTGA the “PBM E-score” value was 0.0709. TGCTGCAA was tested, and the “PBM E-score” value was 0.0933. CCGACCAG was tested, and the “PBM E-score” value was -0.0779. For CTACTCGC, the “PBM E-score” value was -0.13. With CTAGTGTA the “PBM E-score” value was -0.072. With AAAAACCC the “PBM E-score” value was 0.181. With TCGGCGCA the “PBM E-score” value was -0.085. In the case of GCAGCTGC, the “PBM E-score” value is reported as -0.14. In the case of GATGCTCC, the “PBM E-score” value is reported as 0.17. For CCTAGAGA, the “PBM E-score” value was -0.134. In the case of CCTACGAG, the “PBM E-score” value is reported as -0.172. AGATGCTG was tested, and the “PBM E-score” value was -0.143. GAAAGGTA was tested, and the “PBM E-score” value was 0.193. GCGTGCCC was tested, and the “PBM E-score” value was -0.326. CTATCAAA was tested, and the “PBM E-score” value was 0.168. In the case of TCAAGCCA, the “PBM E-score” value is reported as -0.0353. For CCCCGAGC, the “PBM E-score” value was 0.163. For CTCCGGGC, the “PBM E-score” value was 0.391. For TCTTGTAA, the “PBM E-score” value was 0.163. CACCTGGA was tested, and the “PBM E-score” value was -0.119. In the case of CTCGGTTA, the “PBM E-score” value is reported as 0.0486. For ACGGAAGG, the “PBM E-score” value was -0.0622. AACATAAC was tested, and the “PBM E-score” value was 0.163. In the case of CCGATTAG, the “PBM E-score” value is reported as 0.103. With CCATTTAG the “PBM E-score” value was -0.15. ATCCTGGG was tested, and the “PBM E-score” value was -0.275. With CCACCCTA the “PBM E-score” value was -0.0533. GGGCGCCA was tested, and the “PBM E-score” value was -0.158. For GACTCGGA, the “PBM E-score” value was 0.33. For CCATTTCG, the “PBM E-score” value was -0.0685. With CGAAAGTA the “PBM E-score” value was -0.0665. For CTTACTTC, the “PBM E-score” value was 0.167. With GGTCTGAC the “PBM E-score” value was -0.161. With CTGTCCAA the “PBM E-score” value was -0.0138. In the case of GGGCATAC, the “PBM E-score” value is reported as -0.187. For CGTTTTTA, the “PBM E-score” value was 0.169. In the case of CTAAAGGC, the “PBM E-score” value is reported as -0.139. CCTAGTGA was tested, and the “PBM E-score” value was -0.11. With ATTCAGAC the “PBM E-score” value was -0.0431. In the case of CTCTGTCA, the “PBM E-score” value is reported as -0.157. In the case of ACTGGTAT, the “PBM E-score” value is reported as -0.143. For ACTCGACA, the “PBM E-score” value was 0.0249. In the case of CTTTATAA, the “PBM E-score” value is reported as 0.135. In the case of ACAATTGC, the “PBM E-score” value is reported as 0.0567. CGGCGTAG was tested, and the “PBM E-score” value was -0.176. In the case of ACATTTAC, the “PBM E-score” value is reported as 0.168. With CTACGATC the “PBM E-score” value was -0.00632. ACCGGGTC was tested, and the “PBM E-score” value was -0.165. With CGCTACGC the “PBM E-score” value was -0.122. In the case of ACGCTCAT, the “PBM E-score” value is reported as -0.0514. ATTTCGGG was tested, and the “PBM E-score” value was 0.0466. AAAGGGAC was tested, and the “PBM E-score” value was -0.202.
